Hit rate of the full screen: of about 310,000 compounds, about 2,200 (0.71%) showed an effect of 50% or more. Effects have a minus sign here. This is one part of the list.
These molecules were tested against human ether-à-go-go-related gene (hERG) potassium channel (human, UniProt Q12809) (assay: primary screen, population patch clamp on CHO cells stably expressing hERG).
human ether-à-go-go-related gene (hERG) potassium channel, sequence (Q12809 whole entry, looked up): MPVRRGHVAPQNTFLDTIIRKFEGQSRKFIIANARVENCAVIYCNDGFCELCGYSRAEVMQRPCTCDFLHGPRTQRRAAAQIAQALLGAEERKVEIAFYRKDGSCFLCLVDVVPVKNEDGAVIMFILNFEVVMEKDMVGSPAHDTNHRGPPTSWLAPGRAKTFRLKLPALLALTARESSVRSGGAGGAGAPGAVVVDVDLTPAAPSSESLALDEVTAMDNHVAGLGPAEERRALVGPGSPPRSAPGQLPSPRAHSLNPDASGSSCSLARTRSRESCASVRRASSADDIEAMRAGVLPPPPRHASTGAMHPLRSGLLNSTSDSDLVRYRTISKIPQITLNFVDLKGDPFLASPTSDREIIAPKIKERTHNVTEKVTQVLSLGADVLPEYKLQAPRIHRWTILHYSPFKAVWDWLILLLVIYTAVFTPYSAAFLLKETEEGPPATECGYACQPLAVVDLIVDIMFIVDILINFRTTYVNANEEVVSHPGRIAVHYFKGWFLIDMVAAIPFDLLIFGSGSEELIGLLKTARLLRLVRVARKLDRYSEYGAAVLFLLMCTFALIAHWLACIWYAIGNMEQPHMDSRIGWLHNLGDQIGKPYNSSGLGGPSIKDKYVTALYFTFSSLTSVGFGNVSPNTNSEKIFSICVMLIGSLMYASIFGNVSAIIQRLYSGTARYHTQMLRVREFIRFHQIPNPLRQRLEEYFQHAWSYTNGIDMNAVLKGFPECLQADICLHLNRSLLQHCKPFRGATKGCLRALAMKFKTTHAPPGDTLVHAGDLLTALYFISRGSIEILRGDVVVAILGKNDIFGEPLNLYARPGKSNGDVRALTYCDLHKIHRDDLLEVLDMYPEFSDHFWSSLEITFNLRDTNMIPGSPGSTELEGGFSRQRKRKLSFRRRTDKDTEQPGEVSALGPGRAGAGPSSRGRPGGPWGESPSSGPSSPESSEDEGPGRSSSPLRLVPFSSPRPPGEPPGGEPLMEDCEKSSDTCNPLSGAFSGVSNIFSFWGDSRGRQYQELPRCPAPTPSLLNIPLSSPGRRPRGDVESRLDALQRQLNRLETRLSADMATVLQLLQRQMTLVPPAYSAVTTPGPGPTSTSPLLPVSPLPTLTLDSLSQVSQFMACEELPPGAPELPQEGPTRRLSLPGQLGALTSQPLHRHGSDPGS

Row | Structure (SMILES) | hERG current change (%, negative = inhibition) at 1uM
1 | O=C(CN(C(=O)CNS(=O)(=O)c1ccc(F)cc1)c1ccccc1F)NCc1ccco1 | -7.47%
2 | Cn1c(SCC(=O)N2c3ccccc3Sc3ccccc32)nc2ccccc21 | 8.03%
3 | CCc1ccc(NC(=O)COC(=O)CCc2nc3cc(S(=O)(=O)N(CC)CC)ccc3n2C)cc1 | 4.7%
4 | COc1ccc(C(=O)Nc2ccc(NC(=O)c3ccco3)c(Cl)c2)cc1OC | 7.4%
5 | c1ccc(N=C(c2cccs2)N2CCOCC2)cc1 | 13.1%
6 | COc1ccccc1C(=O)OC(C)CN1CCN(C)CC1.Cl (centres unmarked) | 10.7%
7 | NC(=O)c1cc(-c2csc(-c3cccnc3)n2)ccc1O | 9.86%
8 | O=C(NCCN1CCOCC1)Nc1ccc(F)cc1 | 5.76%
9 | CC1(C)CCc2cc(-c3ccn(S(=O)(=O)c4ccccc4Cl)n3)ccc2O1 | 10.4%
10 | Cn1ccc(NC(=O)c2ccc(Cl)cc2Cl)n1 | 7.95%
11 | CCOc1ccc(C(=O)CCNC(Cc2cnc[nH]2)C(=O)O)cc1 (centres unmarked) | 7.32%
12 | CCOC(=O)C1=C(COC(=O)c2ccccc2OC(F)F)NC(=O)NC1C (centres unmarked) | 12.8%
13 | CCOC(=O)C(C)Sc1nc2c(c(=O)[nH]c(=O)n2C)n1C/C=C(/C)Cl (centres unmarked) | -62.6%
14 | O=C(COc1ccc(S(=O)(=O)N2CCOCC2)cc1)NCC1CCCO1 (centres unmarked) | -1.87%
15 | Cc1cccc(-n2c(SCC(=O)N(C)C3CCS(=O)(=O)C3)nc3ccccc3c2=O)c1C (centres unmarked) | 13.9%
16 | CCOc1ccccc1/C=N/NC(=O)c1cccc(Cl)c1 | 9.71%
17 | O=c1[nH]c(=O)n(-c2ccccc2F)c(O)c1C=NCCC1=CCCCC1 | 18.8%
18 | COc1ccc(OC)c(C2C(C(=O)Nc3ccc(F)cc3)=C(C)Nc3nc(CCCO)nn32)c1 (centres unmarked) | 5.26%
19 | O=C(CCn1c(=S)oc2ccccc21)NC1CCCCC1 | 12.7%
20 | Cc1cc(C)c(S(C)(=O)=O)c(S(=O)(=O)c2ccc(Cl)cc2)n1 | 0.591%
21 | C=CCN1C(=O)C2(OCCCO2)c2ccccc21 | 11%
22 | COc1ccc(CN2CCN(C3CCC3)CC2CCO)cc1C (centres unmarked) | 13%

Row | Structure (SMILES) | hERG current change (%, negative = inhibition) at 1uM
23 | COc1ccccc1NS(=O)(=O)c1cc(NC(=O)C(C)C)ccc1N1CCCCC1 | 14.8%
24 | O=C(CNC(=O)c1ccc2c(c1)OCO2)N/N=C(Br)/C=C/c1ccccc1 | 7.92%
25 | Cc1cc(C(=O)CSc2ncccn2)c(C)n1-c1cccc(F)c1 | -0.353%
26 | COc1ccc(N2CCN(C(=O)CCc3nnc4ccc(N5CCCC5)nn34)CC2)cc1 | 8.92%
27 | COc1ccccc1CC(=O)Nc1ccc2c(C)cc(=O)oc2c1 | 6.27%
28 | COc1ccccc1-n1c2nc3ccccc3nc2c2c(=O)n(-c3cc(C)cc(C)c3)cnc21 | -5.14%
29 | COc1ccc(Cl)cc1NC(=O)C/C(C)=N/NC(=O)COc1ccc(C)cc1 | -3.16%
30 | NC(=O)CN1CCN(c2cccc(Cl)c2)CC1 | 11.3%
31 | COc1ccc(C(=O)OCC(=O)N2CCCCCC2)cc1S(=O)(=O)N1CCOCC1 | 3.49%
32 | COc1ccc2oc(C(=O)Nc3ccccc3N3CCOCC3)c(C)c2c1 | 9.17%
33 | COCCn1c(CN2CCc3ccccc3C2)nc2c1c(=O)n(C)c(=O)n2C | 4.77%
34 | Cn1c(-c2ccccc2)cccc1=O | 2.27%
35 | COC(=O)c1ccc(COC(=O)c2c(C)nn(Cc3ccccc3Cl)c2Cl)o1 | 16.3%
36 | O=C(c1cccc(F)c1)N1CCN(C(=O)c2cc3ncc(Br)cn3n2)CC1 | 15%
37 | O=C(Nc1ccccc1)C1CC(=O)N(C2CCCCC2)C1 (centres unmarked) | 11.1%
38 | Cc1ccc(NC(=O)Cn2nnc(C(=O)Nc3ccc(C)c(C)c3)c2N)cc1 | 6.54%
39 | CCOC(=O)c1c(NC(=O)CSc2n[nH]c(CNc3ccccc3)n2)sc(C)c1C | 6.94%
40 | COc1ccc(-n2c(=O)c3c4c(sc3n(CC(=O)Nc3cc(C)[nH]n3)c2=O)CCCC4)c(OC)c1 | 10.2%
41 | O=C(Nc1ccc(O)c2c(=O)cc(-c3cccc(Cl)c3)oc12)c1cccc(Cl)c1 | 9.01%
42 | COc1cccc(CN2CCN(Cc3cccc(Oc4ccccc4)c3)CC2)c1OC.O=C(O)C(=O)O | 13.6%
43 | COC(=O)c1ccc(CNC(=O)c2ccc3c(c2)NC(=O)CS3)cc1 | 4.55%
44 | CC[C@H](C)[C@@H]1O[C@@]2(C=CC1C)CC1C[C@@H](CC=C(C)C(O[C@H]3CC(OC)C(O[C@H]4CC(OC)C(O)C(C)O4)C(C)O3)C(C)C=CC=C3CO[C@@H]4C(O)C(C)=C[C@@H](C(=O)O1)[C@]34O)O2 (some centres unmarked) | -0.942%

Reference: article PMC4336329 (PLoS ONE, 2015)
